The text below walks through data of the supplement of paper PMC4967469.

What is called IC50 is the point on the concentration scale where inhibition reaches its midpoint.

The IC50 comes from the fitted curve, where viability falls to half of the control; a fit beyond the top or the lowest dose is shown as a bound at that dose. AUC sums up the same curve from the lowest dose to the 256-fold higher top dose; values near 1 show little effect.

Compound in this assay: N#CC[C@H](C1CCCC1)n1cc(-c2ncnc3[nH]ccc23)cn1 [Ruxolitinib]
Nature of the assay: Viability of human cancer cell lines after 72 h of drug (GDSC screen). As for the experimental part: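 Human cancer cell lines in 384-well plates, medium with 10% serum, drug for 72 h over a 256-fold dose range (nine 2-fold or five 4-fold steps up to the top dose). Adherent lines were fixed and stained with the nucleic acid dye Syto60, suspension lines read with resazurin; signal relative to control wells, capped at 0 and 100%. One two-parameter sigmoid per drug and line, fitted in a mixed model over all curves with the slope shared within a line.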

Consider “BPH-1 (prostate, adherent, top dose 5.24 µM)”, for which the AUC is 0.982 and the IC50 was above 5.24 µM.
For the cell line “SW626 (ovary, adherent, top dose 5.24 µM)”, the AUC is 0.983 and the IC50 was above 5.24 µM.
Take “NCI-H2023 (lung adenocarcinoma, adherent, top dose 5.24 µM)”: the AUC came out at 0.982 and the IC50 was above 5.24 µM.
The corresponding values for “NCI-H1944 (lung adenocarcinoma, adherent, top dose 5.24 µM)” are 0.935 and above 5.24 µM.
Taken in the same sequence, the figures for “SW684 (fibrosarcoma, adherent, top dose 5.24 µM)” were 0.981 and above 5.24 µM.
As for “SW1990 (pancreas, adherent, top dose 5.24 µM)”, the AUC came out at 0.985 and the half-inhibitory concentration (IC50) was above 5.24 µM.
Taken in the same sequence, the figures for “Becker (glioma, adherent, top dose 5.24 µM)” were 0.983 and above 5.24 µM.
Turning to “TE-1 (oesophagus, adherent, top dose 5.24 µM)”, the AUC turned out to be 0.977 and the concentration for half-maximal inhibition (IC50) was above 5.24 µM.
Turning to “Hs940-T (melanoma, adherent, top dose 5.24 µM)”, the AUC worked out at 0.912 and the IC50 was above 5.24 µM.
Taken in the same sequence, the figures for “HAL-01 (lymphoblastic leukaemia, suspension, top dose 5.24 µM)” were 0.983 and above 5.24 µM.
The corresponding values for “CAL-148 (breast, suspension, top dose 5.24 µM)” are 0.99 and above 5.24 µM.
For “MDA-MB-175-VII (breast, adherent, top dose 5.24 µM)”, the AUC stood at 0.987 and the IC50 is above 5.24 µM.
Taken in the same sequence, the figures for “SW756 (cervix, adherent, top dose 5.24 µM)” were 0.985 and above 5.24 µM.
Taken in the same sequence, the figures for “ALL-SIL (T-cell leukaemia, suspension, top dose 5.24 µM)” were 0.964 and above 5.24 µM.
On to “Raji (Burkitt lymphoma, suspension, top dose 5.24 µM)”, for which the AUC turned out to be 0.99 and the IC50 is above 5.24 µM.
Regarding HLE (liver, adherent, top dose 5.24 µM), the AUC worked out at 0.982 and the IC50 was above 5.24 µM.
Taken in the same sequence, the figures for RKN (ovary, adherent, top dose 5.24 µM) were 0.984 and above 5.24 µM.
The corresponding values for “REH (B-cell leukaemia, suspension, top dose 5.24 µM)” are 0.983 and above 5.24 µM.
The corresponding values for “NCI-H345 (small cell lung carcinoma, suspension, top dose 5.24 µM)” are 0.99 and above 5.24 µM.
Consider “RXF393 (kidney, adherent, top dose 5.24 µM)”, for which the AUC came out at 0.977 and the half-inhibitory concentration (IC50) was above 5.24 µM.
For “MS-1 (small cell lung carcinoma, suspension, top dose 5.24 µM)”, the AUC is 0.991 and the IC50 is above 5.24 µM.
The corresponding values for “RL (B-cell lymphoma, suspension, top dose 5.24 µM)” are 0.989 and above 5.24 µM.
The corresponding values for “PFSK-1 (medulloblastoma, adherent, top dose 5.24 µM)” are 0.985 and above 5.24 µM.
As to “OMC-1 (cervix, adherent, top dose 5.24 µM)”, the AUC worked out at 0.979 and the IC50 is above 5.24 µM.
The corresponding values for “MY-M12 (leukaemia, suspension, top dose 5.24 µM)” are 0.964 and above 5.24 µM.
Regarding “647-V (bladder, adherent, top dose 5.24 µM)”, the AUC is 0.963 and the 50% inhibitory concentration (IC50) was above 5.24 µM.
Take “KYSE-140 (oesophagus, adherent, top dose 5.24 µM)”: the AUC was found to be 0.981 and the IC50 is above 5.24 µM.
Taken in the same sequence, the figures for “SK-ES-1 (Ewing sarcoma, semi-adherent, top dose 5.24 µM)” were 0.965 and above 5.24 µM.
Taken in the same sequence, the figures for “VAL (B-cell lymphoma, suspension, top dose 5.24 µM)” were 0.964 and above 5.24 µM.
The corresponding values for “NH-12 (neuroblastoma, adherent, top dose 5.24 µM)” are 0.984 and above 5.24 µM.
As to “MONO-MAC-6 (acute myeloid leukaemia, suspension, top dose 5.24 µM)”, the AUC amounted to 0.911 and the IC50 is above 5.24 µM.
Taken in the same sequence, the figures for “PCI-4B (head and neck, adherent, top dose 5.24 µM)” were 0.987 and above 5.24 µM.
As to “IHH-4 (thyroid, semi-adherent, top dose 5.24 µM)”, the AUC came to 0.993 and the IC50 was above 5.24 µM.
Taken in the same sequence, the figures for “EJM (lymphoid neoplasm, semi-adherent, top dose 5.24 µM)” were 0.906 and 5.15 µM.
The corresponding values for “DMS-273 (small cell lung carcinoma, adherent, top dose 5.24 µM)” are 0.969 and above 5.24 µM.
The corresponding values for “PANC-04-03 (pancreas, adherent, top dose 5.24 µM)” are 0.976 and above 5.24 µM.
As for “OV-17R (ovary, adherent, top dose 5.24 µM)”, the AUC was determined as 0.98 and the IC50 is above 5.24 µM.
As for “NCI-H2227 (small cell lung carcinoma, semi-adherent, top dose 5.24 µM)”, the AUC stood at 0.98 and the IC50 is above 5.24 µM.
On to “TOV-21G (ovary, adherent, top dose 5.24 µM)”, for which the AUC came to 0.976 and the IC50 is above 5.24 µM.
Taken in the same sequence, the figures for “OE19 (oesophagus, adherent, top dose 5.24 µM)” were 0.986 and above 5.24 µM.
On to “CAMA-1 (breast, adherent, top dose 5.24 µM)”, for which the AUC was 0.981 and the IC50 was above 5.24 µM.
Take “ES8 (Ewing sarcoma, adherent, top dose 5.24 µM)”: the AUC came to 0.987 and the 50% inhibitory concentration (IC50) was above 5.24 µM.
As to “NCI-H2110 (non-small cell lung carcinoma, adherent, top dose 5.24 µM)”, the AUC came out at 0.982 and the IC50 is above 5.24 µM.
For “NCI-H2122 (lung adenocarcinoma, adherent, top dose 5.24 µM)”, the AUC is 0.989 and the IC50 was above 5.24 µM.
Regarding “A498 (kidney, adherent, top dose 5.24 µM)”, the AUC came to 0.971 and the IC50 was above 5.24 µM.
Regarding “Hs633T (fibrosarcoma, adherent, top dose 5.24 µM)”, the AUC is 0.991 and the half-maximal inhibitory concentration (IC50) is above 5.24 µM.
Consider “KYSE-450 (oesophagus, adherent, top dose 5.24 µM)”, for which the AUC is 0.971 and the half-maximal inhibitory concentration (IC50) is above 5.24 µM.
For the cell line “BE-13 (lymphoblastic leukaemia, suspension, top dose 5.24 µM)”, the AUC was found to be 0.985 and the concentration for half-maximal inhibition (IC50) was above 5.24 µM.
Taken in the same sequence, the figures for “CAL-78 (chondrosarcoma, adherent, top dose 5.24 µM)” were 0.986 and above 5.24 µM.
